{"source": "paper PMC4336329", "about": "(PLoS ONE, 2015)", "note": "Out of some 310,000 compounds screened, about 14,000 (4.5%) showed an effect of 50% or more. Effects have a minus sign here. This is one part of the list.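 Further: peak tail current of the secondary pulse compared with the same well before compound.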", "data": [{"target": "human ether-à-go-go-related gene (hERG) potassium channel (human, UniProt Q12809)", "sequence (Q12809 whole entry, looked up)": "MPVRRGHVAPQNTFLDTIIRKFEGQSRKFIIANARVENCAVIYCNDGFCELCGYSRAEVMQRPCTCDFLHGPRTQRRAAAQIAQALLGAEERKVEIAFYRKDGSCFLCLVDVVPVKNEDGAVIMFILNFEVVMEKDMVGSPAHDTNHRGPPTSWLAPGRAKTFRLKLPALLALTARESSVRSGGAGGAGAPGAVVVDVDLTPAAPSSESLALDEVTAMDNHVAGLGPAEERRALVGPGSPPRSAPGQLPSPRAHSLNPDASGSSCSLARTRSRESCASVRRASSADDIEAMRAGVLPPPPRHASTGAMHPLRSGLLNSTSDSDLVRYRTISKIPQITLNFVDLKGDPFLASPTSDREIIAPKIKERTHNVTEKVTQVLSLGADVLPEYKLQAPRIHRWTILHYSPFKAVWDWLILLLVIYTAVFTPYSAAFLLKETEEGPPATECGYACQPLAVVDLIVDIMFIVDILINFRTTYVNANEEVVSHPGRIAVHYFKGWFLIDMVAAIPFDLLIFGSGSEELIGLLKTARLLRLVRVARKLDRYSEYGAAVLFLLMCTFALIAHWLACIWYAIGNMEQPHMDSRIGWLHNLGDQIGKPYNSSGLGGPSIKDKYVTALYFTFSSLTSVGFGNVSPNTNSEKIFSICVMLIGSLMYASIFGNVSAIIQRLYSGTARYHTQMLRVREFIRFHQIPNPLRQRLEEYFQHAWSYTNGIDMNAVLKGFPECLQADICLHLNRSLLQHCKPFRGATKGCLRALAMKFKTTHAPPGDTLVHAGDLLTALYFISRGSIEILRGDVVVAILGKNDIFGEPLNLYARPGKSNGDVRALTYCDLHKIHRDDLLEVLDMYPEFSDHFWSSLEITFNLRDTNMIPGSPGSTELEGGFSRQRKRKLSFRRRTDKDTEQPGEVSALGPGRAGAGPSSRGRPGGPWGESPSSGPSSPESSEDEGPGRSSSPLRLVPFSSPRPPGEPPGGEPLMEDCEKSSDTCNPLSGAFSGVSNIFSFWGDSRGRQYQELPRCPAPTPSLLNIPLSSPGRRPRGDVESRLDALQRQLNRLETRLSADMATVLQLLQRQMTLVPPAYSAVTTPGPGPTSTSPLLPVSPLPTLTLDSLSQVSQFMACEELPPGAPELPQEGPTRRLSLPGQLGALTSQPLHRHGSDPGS", "experiment": "primary screen, population patch clamp on CHO cells stably expressing hERG", "units": {"hERG current change (%, negative = inhibition) at 10uM": "%"}, "values": [{"smiles": "CC(C)c1nn2c(=O)cc(CSc3ccccc3NC(=O)c3ccccc3F)nc2s1", "hERG current change (%, negative = inhibition) at 10uM": -12}, {"smiles": "COC(=O)CN(n1cnnc1)S(=O)(=O)c1ccc(C)cc1", "hERG current change (%, negative = inhibition) at 10uM": 11.6}, {"smiles": "COc1cccc(C(=O)COC(=O)c2ccc(NC(=O)c3ccccc3)cc2)c1", "hERG current change (%, negative = inhibition) at 10uM": 13.4}, {"smiles": "CCOC(=O)Cn1cnc(-c2ccc([N+](=O)[O-])cc2)c1", "hERG current change (%, negative = inhibition) at 10uM": -21.7}, {"smiles": "Cc1cc(O)cc2c1C(c1ccc(F)cc1)CC1(CC(C)(C)NC(=S)N1)O2", "note": "(stereo not drawn)", "hERG current change (%, negative = inhibition) at 10uM": 14.2}, {"smiles": "Nc1ncnc(NNC(=O)CNC(=O)c2c(F)cccc2Cl)c1[N+](=O)[O-]", "hERG current change (%, negative = inhibition) at 10uM": 12}, {"smiles": "O=C(CS(=O)(=O)c1cn(CC(=O)N2CCOCC2)c2ccccc12)Nc1ccccc1", "hERG current change (%, negative = inhibition) at 10uM": 8.09}, {"smiles": "Cc1cc(C(=O)N2CCN(C(c3ccccc3)c3ccccc3)CC2)no1", "hERG current change (%, negative = inhibition) at 10uM": 1.39}, {"smiles": "CCOC(=O)CNC(=O)C1CCC(CNS(=O)(=O)c2cccc3nsnc23)CC1", "note": "(stereo not drawn)", "hERG current change (%, negative = inhibition) at 10uM": -3.95}, {"smiles": "COC(=O)[C@H]1[C@@H](C)N(Cc2ccccc2)C(=O)N[C@H]1c1ccccc1", "hERG current change (%, negative = inhibition) at 10uM": -2.47}, {"smiles": "COCCOc1ccc(C(F)(F)F)cc1NC(=O)c1ccc(C(F)(F)F)cc1", "hERG current change (%, negative = inhibition) at 10uM": 3.74}, {"smiles": "Cc1nc(-c2cccc(NC(=O)c3ccc(-n4cccn4)cc3)c2)cs1", "hERG current change (%, negative = inhibition) at 10uM": 7.24}, {"smiles": "Cc1ccccc1CN(C)C(C)C(=O)Nc1ccccc1F", "note": "(stereo not drawn)", "hERG current change (%, negative = inhibition) at 10uM": 19.4}, {"smiles": "COc1ccccc1N(C(=O)NCc1ccccc1)C1=NCC(C)S1", "note": "(stereo not drawn)", "hERG current change (%, negative = inhibition) at 10uM": 5.85}, {"smiles": "COc1ccc(-c2c(C#N)c(C)nc3c2C(=O)c2ccccc2-3)cc1", "hERG current change (%, negative = inhibition) at 10uM": -3.8}, {"smiles": "Cn1c(=O)n(Cc2ccc(Br)cc2)c2ccccc21", "hERG current change (%, negative = inhibition) at 10uM": -3.58}, {"smiles": "COc1ccc(NC(=O)C/C(C)=N/NC(=O)CCc2ccccc2)c(OC)c1", "hERG current change (%, negative = inhibition) at 10uM": 4.6}, {"smiles": "CC1=NN(C(=O)CCc2ccc3c(c2)OCO3)C(O)(C(F)(F)F)C1", "note": "(stereo not drawn)", "hERG current change (%, negative = inhibition) at 10uM": 20.3}, {"smiles": "CC(Nc1ccccc1CO)C(=O)Nc1cccc(Cl)c1Cl", "note": "(stereo not drawn)", "hERG current change (%, negative = inhibition) at 10uM": 5.35}, {"smiles": "Cc1ccc(O)c(CP(=O)(c2ccccc2)c2ccccc2)c1", "hERG current change (%, negative = inhibition) at 10uM": -9.34}, {"smiles": "Cc1cccc(NC(=O)c2ccc(S(=O)(=O)NCc3ccco3)cc2)n1", "hERG current change (%, negative = inhibition) at 10uM": -1.41}, {"smiles": "CN(C)S(=O)(=O)c1cccc(NC(=O)CCc2nc3sc4c(c3c(=O)[nH]2)CCCC4)c1", "hERG current change (%, negative = inhibition) at 10uM": -3.91}, {"smiles": "O=C(CN1C(=O)c2ccccc2C1=O)N1CCN(c2ccccc2)CC1", "hERG current change (%, negative = inhibition) at 10uM": -4.86}, {"smiles": "COc1ccc(N(C(=O)c2ccc3c(c2)OCO3)C2C=CS(=O)(=O)C2)c(OC)c1", "note": "(stereo not drawn)", "hERG current change (%, negative = inhibition) at 10uM": -22.3}, {"smiles": "c1ccc2oc(-c3nn4c(Cn5cnc6ccccc65)nnc4s3)cc2c1", "hERG current change (%, negative = inhibition) at 10uM": 14.3}, {"smiles": "Cc1cccc(C)c1NC(=O)c1cc(S(=O)(=O)N2CCOCC2)ccc1F", "hERG current change (%, negative = inhibition) at 10uM": -8.05}, {"smiles": "NCCCCCC(=O)O", "hERG current change (%, negative = inhibition) at 10uM": 8.44}, {"smiles": "COc1ccc(Cn2c3ccc(OC)cc3c3nc4ccccc4nc32)cc1", "hERG current change (%, negative = inhibition) at 10uM": 9.31}, {"smiles": "Cc1ccc(CSc2[nH]c(=O)ncc2C)cc1", "hERG current change (%, negative = inhibition) at 10uM": 10.7}, {"smiles": "CCc1ccc(CN(Cc2cccnc2)C(=O)/C=C/c2ccc(OC)cc2)cc1", "hERG current change (%, negative = inhibition) at 10uM": -25}, {"smiles": "Cc1cc(C)n(CC(=O)c2ccccc2)c(=O)c1C#N", "hERG current change (%, negative = inhibition) at 10uM": 10.9}, {"smiles": "O=C(CCNS(=O)(=O)c1ccccc1C(F)(F)F)NCCCc1ccccc1", "hERG current change (%, negative = inhibition) at 10uM": 1.16}, {"smiles": "O=[N+]([O-])c1cc(S(=O)(=O)N2CCCC2)ccc1NN=C1CCCCC1", "hERG current change (%, negative = inhibition) at 10uM": 12.4}, {"smiles": "NS(=O)(=O)c1ccc(N2N=C(c3ccccc3)CC2c2ccccc2)cc1", "note": "(stereo not drawn)", "hERG current change (%, negative = inhibition) at 10uM": -3.51}, {"smiles": "c1ccc2c(c1)NCC1CCCN21", "note": "(stereo not drawn)", "hERG current change (%, negative = inhibition) at 10uM": -1.65}, {"smiles": "O=c1c(-c2ccccc2Cl)c[nH]n1-c1ccccc1", "hERG current change (%, negative = inhibition) at 10uM": 20.2}, {"smiles": "CSCCC(=O)N1CCCC(CNC(=O)c2ccccc2Cl)C1", "note": "(stereo not drawn)", "hERG current change (%, negative = inhibition) at 10uM": 5.46}, {"smiles": "COc1ccc2[nH]c(=O)c(CNc3ccc(C)cc3C)cc2c1", "hERG current change (%, negative = inhibition) at 10uM": -5.47}, {"smiles": "CC1=C(C(=O)Nc2ccccc2)C(c2ccco2)C(C#N)=C(SCC(=O)Nc2cccc(C)c2C)N1", "note": "(stereo not drawn)", "hERG current change (%, negative = inhibition) at 10uM": 17.9}, {"smiles": "Cc1ccc([N+](=O)[O-])cc1NC(=O)CN(C)CCOc1ccccc1.O=C(O)C(=O)O", "hERG current change (%, negative = inhibition) at 10uM": -21.1}, {"smiles": "NC(=O)c1cc2ccccc2o/c1=N/NC(=O)c1cccc(F)c1", "hERG current change (%, negative = inhibition) at 10uM": -2.66}, {"smiles": "COc1ccc(Cc2n[nH]c(=O)c3ccccc23)cc1OC", "hERG current change (%, negative = inhibition) at 10uM": -14}, {"smiles": "Cn1nc(N)c2c1N=P(N1CCOCC1)(N1CCOCC1)N=C2c1ccccc1", "hERG current change (%, negative = inhibition) at 10uM": 0.201}, {"smiles": "O=C(NCC1CC1)C1(C(F)(F)F)CC(CCc2ccccc2)CCCO1", "note": "(stereo not drawn)", "hERG current change (%, negative = inhibition) at 10uM": 3.42}, {"smiles": "Cc1ccc(CC(=O)Nc2cccc([N+](=O)[O-])c2)cc1", "hERG current change (%, negative = inhibition) at 10uM": 15.8}, {"smiles": "CC(NC(=O)CNC(=O)c1cccc(Cl)c1)c1ccccc1", "note": "(stereo not drawn)", "hERG current change (%, negative = inhibition) at 10uM": 6.56}, {"smiles": "COc1ccc(CN2CCN(CCSc3ccc(C)cc3)CC2)c(OC)c1OC.O=C(O)C(=O)O", "hERG current change (%, negative = inhibition) at 10uM": -58.5}, {"smiles": "Cc1ccccc1-n1c(-c2ccncc2)n[nH]c1=S", "hERG current change (%, negative = inhibition) at 10uM": 10.6}, {"smiles": "Cc1cc(C(=O)COC(=O)c2ccc[nH]c2=O)c(C)n1C1CC1", "hERG current change (%, negative = inhibition) at 10uM": -3.04}, {"smiles": "COc1cc(C(=O)NNC(=O)c2cc(C)[nH]n2)cc(OC)c1OC", "hERG current change (%, negative = inhibition) at 10uM": 18.8}, {"smiles": "O=c1nc2ccccn2c2ccc(S(=O)(=O)N3CCCCC3)cc12", "hERG current change (%, negative = inhibition) at 10uM": 16.6}, {"smiles": "CCOc1cc(-c2nc(-c3ccc(OC)cc3)no2)cc(OCC)c1OCC", "hERG current change (%, negative = inhibition) at 10uM": 13}, {"smiles": "CCn1cc(/C=N/NS(=O)(=O)c2ccc(OC)cc2)c(C)n1", "hERG current change (%, negative = inhibition) at 10uM": 13.2}, {"smiles": "CCOC(=O)c1cc(-c2ccccc2)n[nH]1", "hERG current change (%, negative = inhibition) at 10uM": 13.1}, {"smiles": "O=C1CC(N2CCSCC2)C(=O)N1c1ccccc1", "note": "(stereo not drawn)", "hERG current change (%, negative = inhibition) at 10uM": 22.2}, {"smiles": "Cn1c(N)c(C(=O)CCl)c(=O)n(Cc2ccccc2)c1=O", "hERG current change (%, negative = inhibition) at 10uM": 2.2}, {"smiles": "O=C(O)CCC(=O)N(Cc1ccco1)c1nc(-c2ccccc2)cs1", "hERG current change (%, negative = inhibition) at 10uM": -36.9}]}]}
